{
  "source": "paper PMC6919601",
  "about": "“Identification of Plasmodium dipeptidyl aminopeptidase allosteric inhibitors by high throughput screening” (PLoS ONE, 2019)",
  "note": "Hit rate of the full screen: of about 110,000 compounds, about 230 (0.21%) showed an effect of 50% or more. Some of the results follow.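 Also: 30 min substrate incubation versus DMSO and 10 µM JCP410 controls.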",
  "data": [
    {"target": "DPAP1 (Plasmodium falciparum, UniProt Q8IIJ9)", "sequence (Q8IIJ9 whole entry, looked up)": "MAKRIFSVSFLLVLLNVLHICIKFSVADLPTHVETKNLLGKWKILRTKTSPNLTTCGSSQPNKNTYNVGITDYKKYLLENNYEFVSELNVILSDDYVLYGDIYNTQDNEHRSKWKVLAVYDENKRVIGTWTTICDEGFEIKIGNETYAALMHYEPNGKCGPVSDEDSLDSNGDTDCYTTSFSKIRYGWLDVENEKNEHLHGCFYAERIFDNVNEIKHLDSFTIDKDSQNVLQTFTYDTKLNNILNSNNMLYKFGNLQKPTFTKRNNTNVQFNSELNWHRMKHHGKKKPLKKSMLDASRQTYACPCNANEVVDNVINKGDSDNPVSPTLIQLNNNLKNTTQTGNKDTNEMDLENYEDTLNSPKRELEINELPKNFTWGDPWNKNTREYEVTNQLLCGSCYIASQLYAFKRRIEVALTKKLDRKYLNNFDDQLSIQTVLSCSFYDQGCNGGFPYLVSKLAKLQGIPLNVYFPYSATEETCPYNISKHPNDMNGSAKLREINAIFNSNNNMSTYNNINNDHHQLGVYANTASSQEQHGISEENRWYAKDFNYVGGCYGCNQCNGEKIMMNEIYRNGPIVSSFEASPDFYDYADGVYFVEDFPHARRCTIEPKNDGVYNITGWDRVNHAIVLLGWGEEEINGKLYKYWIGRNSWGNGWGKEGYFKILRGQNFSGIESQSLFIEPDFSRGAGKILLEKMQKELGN", "assay": "primary screen, percent inhibition; read by cleavage of a fluorogenic dipeptide substrate; higher = more effect of the substance", "parameters": "species or system P. falciparum D10 trophozoite lysates; single well", "units": {"% Inhibition @ 10 uM": "%"}, "values": [
      {"compound": "Cc1ccc(-n2nnc(C(N)=O)c2C)cc1F", "% Inhibition @ 10 uM": 1.68},
      {"compound": "O=C(Nc1cccc(F)c1)c1cccc(Br)c1", "% Inhibition @ 10 uM": 1.48},
      {"compound": "Cn1nnnc1SCC(=O)N1CCc2ccccc2C1", "% Inhibition @ 10 uM": -0.703},
      {"compound": "CCC1CCCCN1Cc1nc2c(c(=O)n(C)c(=O)n2C)n1Cc1cc(C)ccc1C", "note": "(stereo not shown)", "% Inhibition @ 10 uM": -0.499},
      {"compound": "O=C(NCc1ccncc1)Nc1cccc(F)c1", "% Inhibition @ 10 uM": 7.06},
      {"compound": "COc1cccc(-c2[nH]nc3c2C(c2cc(OC)cc(OC)c2)C(C#N)=C(N)O3)c1", "note": "(stereo not shown)", "% Inhibition @ 10 uM": -5.63},
      {"compound": "COc1ccc(C(=O)/C=C/c2cccc(Cl)c2)c(OC)c1", "% Inhibition @ 10 uM": -0.546},
      {"compound": "COCc1cc(C)nc2sc(C(O)c3ccccc3)c(NC(=O)c3ccco3)c12", "note": "(stereo not shown)", "% Inhibition @ 10 uM": 1.62},
      {"compound": "CCn1cc(C(=O)Nc2cc(C(=O)O)ccc2C)c(C)n1", "% Inhibition @ 10 uM": -0.171},
      {"compound": "COc1ccc(S(=O)(=O)N2CCC(C(=O)Nc3cc(Cl)c(Cl)cc3Cl)CC2)cc1", "% Inhibition @ 10 uM": -3.45},
      {"compound": "Cc1[nH]c2ccccc2c1CCNC(=O)NC(=O)c1c(F)cccc1F", "% Inhibition @ 10 uM": 0.83},
      {"compound": "CCOc1ccc(NC(=O)COc2ccc(CC)cc2)cc1", "% Inhibition @ 10 uM": -5.1},
      {"compound": "N#Cc1cc2c(N)c(C(=O)Nc3ccc(OC(F)(F)F)cc3)sc2nc1N", "% Inhibition @ 10 uM": 12.4},
      {"compound": "COc1ccc(OC)c(N(CC(=O)Nc2ccc(Br)cc2)S(C)(=O)=O)c1", "% Inhibition @ 10 uM": 3.17},
      {"compound": "O=C(C1CCN(c2nnc(N3CCCC3=O)s2)CC1)N1CCC(Cc2ccccc2)CC1", "% Inhibition @ 10 uM": 3.87},
      {"compound": "Cc1c(CC(=O)N2CCCC2)c(=O)oc2cc(O)ccc12", "% Inhibition @ 10 uM": -0.808},
      {"compound": "CCn1c(-c2ccc(OC)c(OC)c2)nc2ccccc21", "% Inhibition @ 10 uM": -2.5},
      {"compound": "Brc1cccc(CN2CCN(Cc3ccncc3)CC2)c1", "% Inhibition @ 10 uM": 3.65},
      {"compound": "CC1CCN(c2c(NCC3CCC(C(=O)N4CCOCC4)CC3)c(=O)c2=O)CC1", "note": "(stereo not shown)", "% Inhibition @ 10 uM": -3.96},
      {"compound": "COc1cc(/C=C/C(=O)Nc2nc3ccc(S(C)(=O)=O)cc3s2)ccc1OCc1ccccc1", "% Inhibition @ 10 uM": -3.28},
      {"compound": "Cc1cccc(NC(=O)C2CCCN(c3ncnc4onc(-c5ccc(F)cc5)c34)C2)n1", "note": "(stereo not shown)", "% Inhibition @ 10 uM": 1.92},
      {"compound": "NC(=O)c1cccc(S(=O)(=O)N2CCCCC2)c1", "% Inhibition @ 10 uM": -1.22},
      {"compound": "Cc1cc(C(=O)N2CCOCC2)c2c(C)nn(-c3ccccc3Cl)c2n1", "% Inhibition @ 10 uM": 2.12},
      {"compound": "Cn1ccnc1SCC(=O)c1ccc(Br)cc1", "% Inhibition @ 10 uM": -9.44},
      {"compound": "COc1ccc(OC)c(C2NC(=O)NC(C)=C2C(=O)OCC(F)(F)C(F)(F)F)c1", "note": "(stereo not shown)", "% Inhibition @ 10 uM": -4.77},
      {"compound": "C=CCN(Cc1cc(OC)ccc1OC)C(=O)Nc1ccccc1", "% Inhibition @ 10 uM": -0.872},
      {"compound": "Cc1nc2ccccc2cc1C(=O)Nc1ccc(Br)cc1", "% Inhibition @ 10 uM": 3.49},
      {"compound": "O=C(NC(c1ccccc1)c1ccccc1)C(c1ccc(Cl)cc1)N1CCOCC1", "note": "(stereo not shown)", "% Inhibition @ 10 uM": 18.1}
    ]}
  ]
}
